The RNAGym collection of RNA variant scans (doi:10.7554/elife.90254)
The source gives no read counts; variants with many changes may rest on few reads.

B1: LINE1-mini (parent)
chain: GGCAGAGCUCAACACAGCGUGGCAAAGUGGCUGUGGCUAGACUGCC

Variants of: B1
Assay: self-cleavage, relative activity (ratio to wild type); higher = more cleavage; in vitro, sequencing; the parent is a self-cleaving ribozyme

Row | Variant | self-cleavage
1 | A11C C13A U20C C37U C42G | 0.02
2 | C8G A12C A26C | 0
3 | C10A U28A C45A | 0.01
4 | A6C G17A G21U U28C U34C G36A U38G A39C | 0
5 | U20G G21A U38G | 0.01
6 | U9G C10A C46A | 0.02
7 | A25U G30U G35U | 0.05
8 | G1C G19U C23A U32G | 0.02
9 | U9G A39G C46G | 0.01
10 | G5U U9A A16C C31U | 0.04
11 | G1C C13A G22U C45U | 0.02
12 | C3G A4G C13U C37G C42G | 0.01
13 | G1A G36U G40A C42U | 0.11
14 | G7U G19U G35C C45A | 0.04
15 | G1U A6C G7C U9A C13U G29U | 0.05
16 | G7U G22A U32C | 0.03
17 | A16G G27C U32A | 0.04
18 | G1U U43C C46U | 0.07
19 | C3U A24C C37A | 0.16
20 | C10U G29C C31A | 0.24
21 | A4G C10G A14G G22A C23G | 0.01
22 | G2U A4G C31U G44A | 0.09
23 | G40C U43G C45U | 0.07
24 | C13U C23A A26C C31A | 0.13

Row | Variant | self-cleavage
25 | U20A G21A G30A G36A U38C | 0.15
26 | A12G C31U A39U G44A | 0.16
27 | A14C C15U U20A | 0.07
28 | C10G G22U A24C G29C G33A | 0
29 | G5U G22A C45A | 0.04
30 | C10U G22U A26U C31A G36U | 0.05
31 | A16C C23A G35C G44A | 0.2
32 | C10A A12G G22C G40A | 0
33 | A12U A14C G40U | 0.03
34 | A4C A25C G30U C42U U43A | 0.67
35 | G1C C13U C31G U38A | 0
36 | C3U U9C A12G U32C | 0.07
37 | A4U C42A U43C | 0.81
38 | A11U G19C C23G C46G | 0.24
39 | C18G G29U G30U | 0.34
40 | C13A G36U C42G | 0.05
41 | C3A A12C G17A G22A G35A G36C | 0.01
42 | G2U C13U A25C G27U | 0.02
43 | C18G G29A G33U G35A C45A C46U | 0.02
44 | C18A G40U C46G | 0.08
45 | A11C C15G G22U | 0.01
46 | A6G U20A C37U | 0.04
47 | A4U C10U U20C | 0
48 | G1C C3G U9A A25U G27U | 0.04

Row | Variant | self-cleavage
49 | A12U C13U C31U A39G | 0.07
50 | C8G C13U C15U G22A U32G | 0.01
51 | U9A A12G C15G C31A G33C A39C C45G | 0.02
52 | C13A C31U G33C G35U | 0.02
53 | C23U U34G A39U | 0.26
54 | C8G G21A U34A | 0.03
55 | U9A G17C G33A | 0.05
56 | A6G C13A G17A | 0.03
57 | U9C G40A A41G | 0.01
58 | A24C G30C C42A | 0.02
59 | G1U G5U G22C U32A G35U | 0.01
60 | A4U C18G A26C U32A | 0.17
61 | C3G G5U C15U A16U U20G A39C | 0.07
62 | G7U U9G C13A G17U G21U G29C G30C | 0.01
63 | G2A A12G C15A | 0.08
64 | U34A C37A A41C | 0.01
65 | C10A G19U C23U A25C | 0.03
66 | C18A G35C C45U | 0.02
67 | A4G A6G A12C C13U G33U C42G | 0.05
68 | A6G C8A C42G C46A | 0.08
69 | C8U A25G U28A | 0.02
70 | G19A G33C G36A | 0.07
71 | C3G C13G G29U | 0.24
72 | C13G G22U A25U U32G U34C C37G C45U | 0.04

Row | Variant | self-cleavage
73 | C18U G30C U38G | 0.02
74 | G7U A11G C18A G30A | 0.02
75 | A4G A12G A39U | 0.01
76 | C3G A4G G27A U32C | 0.09
77 | A6U U28C C37G C42U | 0.06
78 | G17A U28C G29C C46U | 0.26
79 | G1A A6C U9A G17C U32A | 0.11
80 | A16U G17U G35C G40U C42U | 0.01
81 | C10G A26C A41G | 0.02
82 | U9G G21U G27A | 0.04
83 | G2A A6U C15A G22C C37G | 0.09
84 | C3U A16U C18G G40A | 0.02
85 | U20G G22C G29A U34A A41U C42A | 0.18
86 | G1C C3U U9G A14C C37A U43C | 0.01
87 | C3U G30U C45A | 0.06
88 | C10G A16C U38C | 0.01
89 | G7U A11U A16C A25C | 0.01
90 | C18G G30A U32A C46A | 0.05
91 | G5A C8A A11C C13A G22U U43A | 0.05
92 | G2C G17C C45G | 0.71
93 | C15U A25G C37U | 0.05
94 | A4C C8G A26C | 0.28
95 | G2C C15A G22U G30U G44A | 0
96 | G2A C23A C31A G35U A41C | 0.11

Row | Variant | self-cleavage
97 | G2A C8G A41U | 0.09
98 | A14G A25G U34A | 0.02
99 | G17U G19A G27A C31U C46G | 0.13
100 | G1C A11G C15A G22C G27U | 0
101 | C10A A11G A26C G30A U34C A41U | 0.01
102 | G1U A16G U32A G35U | 0.03
103 | C3A G21C G36C | 0.24
104 | C31G G40U U43G | 0.01
105 | G2C A11U A41C | 0.01
106 | C15U G17U U28A C37A | 0.05
107 | C23U G27A G29U G30C G40U | 0.06
108 | A4U C18G G30U | 0.01
109 | C3U C13A C23G U34C C45U | 0.17
110 | C3G C15U U38C C46U | 0.05
111 | A16C G17C C46U | 0.02
112 | G2A A12G G36C | 0.08
113 | C3U C23G G44U | 0.06
114 | A6C U9A G19U A26C | 0.04
115 | C8U C15U G21U | 0.25
116 | G5C C10A G29U C31A | 0
117 | G5C A11U G21C A24G G27A C31A U38C | 0.01
118 | G1U G5U U38G | 0
119 | A6G C42G G44U | 0.04
120 | U20A G21C G36A | 0.02

Row | Variant | self-cleavage
121 | A12C G19U U28A | 0
122 | G5U C10A G17A | 0.02
123 | G1A G36C C42A | 0.04
124 | G1U A4C C10A C15U | 0.01
125 | G1U G19U G27C | 0.3
126 | C13G A16G U34A | 0.01
127 | C3U U32A C42G | 0.16
128 | C3U C13A U43C | 0.07
129 | G5C G7C A14U C18G C31G A41U | 0.03
130 | U9A C10G A25U C31U U43C | 0.02
131 | G1A G21C G36U | 0.04
132 | G19U C23U G30U G36C G40C | 0.05
133 | A4G A12C G22U U28A | 0.02
134 | A11G A24G G33A G40U | 0.01
135 | C18G U20C G29A | 0.46
136 | G1A C10G G27A | 0.09
137 | C18A G21U C23G G27U | 0.38
138 | G2C U9G C23A | 0.03
139 | C10A A12G C13U C18U | 0.04
140 | A6C C18U C45U | 1.22
141 | A16C C31G U38G G40U | 0.01
142 | G7C C15G G17U G19C G35C A39U G40C | 0.01
143 | G5U A14C U38C U43A | 0.04
144 | U20C G22A A41U C42G | 0.08

Row | Variant | self-cleavage
145 | A14U G17U C31U U38C A39U C45A | 0.02
146 | C3G G27U U32C A41C | 0.03
147 | G2A G5U G19A A26C G36C | 0.06
148 | C15A C18U G33U C42U | 0.2
149 | C8U A14C G33A | 0.08
150 | A11U G17A C18U C46G | 0.03
151 | A14U A16C G21U | 0.05
152 | G5C C15U C45U C46U | 0.04
153 | A11C G27C C37A | 0
154 | G5C A24U U32G G44C | 0.06
155 | A16G C18U G21A C23A G40C | 0.01
156 | C8U C10U U28G | 0.01
157 | G7C U20C G27C U32A | 0.01
158 | U9A C10A G35A | 0.03
159 | C10U U38A G40U | 0.03
160 | G1A G5U G19U C31G G36C A39U G40U | 0
161 | G19C G36C G40U C45A | 0.05
162 | C10G U20A C31A A41U | 0
163 | G2C C3A A41C | 0.02
164 | G5U A6C G36U | 0.03
165 | A26U G36A C46A | 0.23
166 | G7U C10A G30C | 0.01
167 | G1U A16G G21U C46U | 0.16
